Measured values published in patent US20190225650A1, “PEPTIDOMIMETIC MACROCYCLES AND USE THEREOF IN REGULATING HIF1ALPHA” (AILERON THERAPEUTICS, INC., priority 2013, published 2019).
At least one structure is not confirmed: it was looked up by name or label, or the drawing left a doubt. Bridge positions count the residues as written; N and C are the ends. Square brackets hold non-standard residues; d marks the D form. Peptide text beside a SMILES is read from it. R8 = C=CCCCCCC[C@@](C)(N)C(=O)O; S5 = C=CCCC[C@](C)(N)C(=O)O; Nle = CCCC[C@H](N)C(=O)O; Dap = NC[C@H](N)C(=O)O

What follows are compounds tested against T1, flag-tagged HIF1α (AA 786-826) / His6-tagged p300 (AA 323-423) complex (Homo sapiens, UniProt Q09472) (assay: HIF1α p300 displacement assay (TR FRET, +CHAPS)). Conditions: read-out: IC50 (nM) (HIF1α_p300 Displacement + CHAPS).
T1 construct: His6-tagged p300 (AA 323-423); made in house; host or cells: E. coli (pETDuet vector)
Assay type: binding
How it was run: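 The co-expressed flag-HIF1α (786-826)/His6-p300 (323-423) complex, purified from E. coli with 0.1 mM ZnSO4, was used at 300 nM final with competitor peptides for 1 h at room temperature. Buffer was 150 mM NaCl, 20 mM HEPES pH 7.4, 7.5 mM CHAPS and 1 mM DTT. Anti-Flag-K (0.5 μM) and anti-His-D2 (4 nM) were then added for 2 h, and IC50s were fitted from the TR-FRET ratio.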

T1 sequence (Q09472 323-423, one chain of several): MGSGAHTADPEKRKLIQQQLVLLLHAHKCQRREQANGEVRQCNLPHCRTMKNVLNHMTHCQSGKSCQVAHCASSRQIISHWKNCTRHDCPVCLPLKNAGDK

| SMILES | IC50 |
| --- | --- |
| CCCC[C@H](NC(=O)[C@H](CC(C)C)NC(=O)[C@@H](NC(=O)[C@H](CCC(=O)O)NC(=O)[C@H](CCC(=O)O)NC(=O)[C@H](CC(=O)O)NC(=O)[C@@H](NC(=O)[C@H](Cc1ccccc1)NC(C)=O)[C@@H](C)CC)C(C)C)C(=O)N[C@@]1(C)CCCC=CCCC[C@@](C)(C(=O)N[C@@H](CCCC)C(=O)N[C@@H](C)C(=O)N[C@@H](CC(C)C)C(N)=O)NC(=O)[C@H]([C@@H](C)CC)NC(=O)[C@H](C(C)C)NC(=O)[C@H](CC(C)C)NC1=O [SP-8] (Ac-FIDEEVL[Nle][S5]LVI[S5][Nle]AL-NH2; staple 9-13) | 200 to 400 nM |
| CCCC[C@H](NC(=O)[C@H](CC(C)C)NC(=O)[C@@H](NC(=O)[C@H](CCC(=O)O)NC(=O)[C@H](CCC(=O)O)NC(=O)[C@H](CC(=O)O)NC(=O)[C@@H](NC(=O)[C@H](Cc1ccccc1)NC(C)=O)[C@@H](C)CC)C(C)C)C(=O)N[C@@]1(C)CCCC=CCCC[C@@](C)(C(=O)N[C@@H](CCCC)C(=O)N[C@@H](C)C(=O)N[C@@H](CC(C)C)C(=O)N[C@@H](CC(=O)O)C(=O)N[C@@H](CCCNC(=N)N)C(=O)N[C@H](C(N)=O)[C@@H](C)CC)NC(=O)[C@H](CO)NC(=O)[C@H](C(C)C)NC(=O)[C@H](CC(C)C)NC1=O [SP-53] (Ac-FIDEEVL[Nle][S5]LVS[S5][Nle]ALDRI-NH2; staple 9-13) | 400 to 700 nM |
| CCCC[C@H](NC(=O)[C@H](CC(C)C)NC(=O)[C@@H](NC(=O)[C@H](CCC(=O)O)NC(=O)[C@H](CCC(=O)O)NC(=O)[C@H](CO)NC(=O)[C@@H](NC(=O)[C@H](Cc1ccccc1)NC(C)=O)[C@@H](C)CC)C(C)C)C(=O)N[C@@]1(C)CCCC=CCCC[C@@](C)(C(=O)N[C@@H](CCCC)C(=O)N[C@@H](C)C(=O)N[C@@H](CC(C)C)C(=O)N[C@@H](CC(=O)O)C(=O)N[C@@H](CCCNC(=N)N)C(=O)N[C@H](C(N)=O)[C@@H](C)CC)NC(=O)[C@H]([C@@H](C)CC)NC(=O)[C@H](C(C)C)NC(=O)[C@H](CC(C)C)NC1=O [SP-46] (Ac-FISEEVL[Nle][S5]LVI[S5][Nle]ALDRI-NH2; staple 9-13) | 400 to 700 nM |
| CC[C@H](C)[C@H](NC(=O)[C@H](Cc1ccccc1)NC(C)=O)C(=O)N[C@@H](CC(=O)O)C(=O)N[C@@H](CCC(=O)O)C(=O)N[C@H](C(=O)N[C@H](C(=O)N[C@@H](CC(C)C)C(=O)N[C@@H](CCSC)C(=O)N[C@@]1(C)CCCC=CCCC[C@@](C)(C(=O)N[C@@H](CCSC)C(=O)N[C@@H](C)C(=O)N[C@@H](CC(C)C)C(N)=O)NC(=O)[C@H]([C@@H](C)CC)NC(=O)[C@H](C(C)C)NC(=O)[C@H](CC(C)C)NC1=O)C(C)C)[C@@H](C)O [SP-239] (Ac-FIDETVLM[S5]LVI[S5]MAL-NH2; staple 9-13) | 400 to 700 nM |
| CCCC[C@H](NC(=O)[C@H](CC(C)C)NC(=O)[C@@H](NC(=O)[C@H](CCC(=O)O)NC(=O)[C@H](CCC(=O)O)NC(=O)[C@H](CC(=O)O)NC(=O)[C@@H](NC(=O)[C@H](CN)NC(C)=O)[C@@H](C)CC)C(C)C)C(=O)N[C@@]1(C)CCCC=CCCC[C@@](C)(C(=O)N[C@@H](CCCC)C(=O)N[C@@H](C)C(=O)N[C@@H](CC(C)C)C(=O)N[C@@H](CC(=O)O)C(=O)N[C@@H](CCCNC(=N)N)C(=O)N[C@H](C(N)=O)[C@@H](C)CC)NC(=O)[C@H]([C@@H](C)CC)NC(=O)[C@H](C(C)C)NC(=O)[C@H](CC(C)C)NC1=O [SP-61] (Ac-[Dap]IDEEVL[Nle][S5]LVI[S5][Nle]ALDRI-NH2; staple 9-13) | 400 to 700 nM |
| CCCC[C@H](NC(=O)[C@H](Cc1ccccc1)NC(=O)[C@@H](NC(=O)[C@H](C)NC(=O)[C@H](CCC(N)=O)NC(=O)[C@H](CC(=O)O)NC(=O)[C@@H](NC(=O)[C@H](Cc1ccccc1)NC(C)=O)[C@@H](C)CC)C(C)C)C(=O)N[C@@]1(C)CCCC=CCCC[C@@](C)(C(=O)N[C@@H](CCC(N)=O)C(=O)N[C@@H](C)C(=O)N[C@@H](CC(C)C)C(=O)N[C@@H](CC(C)C)C(N)=O)NC(=O)[C@H]([C@@H](C)CC)NC(=O)[C@H](C(C)C)NC(=O)[C@H](CC(C)C)NC1=O [SP-255] (Ac-FIDQAVF[Nle][S5]LVI[S5]QALL-NH2; staple 9-13) | > 700 nM |
| CCCC[C@H](NC(=O)[C@H](CC(C)C)NC(=O)[C@@H](NC(=O)[C@H](CCC(=O)O)NC(=O)[C@H](CCC(=O)O)NC(=O)[C@H](CC(=O)O)NC(=O)[C@@H](NC(=O)[C@H](Cc1ccccc1)NC(C)=O)[C@@H](C)CC)C(C)C)C(=O)N[C@@]1(C)CCCC=CCCC[C@@](C)(C(=O)N[C@@H](CN)C(=O)N[C@@H](C)C(=O)N[C@@H](CC(C)C)C(=O)N[C@@H](CC(=O)O)C(=O)N[C@@H](CCCNC(=N)N)C(=O)N[C@H](C(N)=O)[C@@H](C)CC)NC(=O)[C@H]([C@@H](C)CC)NC(=O)[C@H](C(C)C)NC(=O)[C@H](CC(C)C)NC1=O [SP-66] (Ac-FIDEEVL[Nle][S5]LVI[S5][Dap]ALDRI-NH2; staple 9-13) | 400 to 700 nM |
| CCCC[C@H](NC(=O)[C@H](CC(C)C)NC(=O)[C@@H](NC(=O)[C@H](CCC(=O)O)NC(=O)[C@H](CCC(=O)O)NC(=O)[C@H](CC(=O)O)NC(=O)[C@@H](NC(=O)[C@H](Cc1ccccc1)NC(C)=O)[C@@H](C)CC)C(C)C)C(=O)N[C@@]1(C)CCCC=CCCC[C@@](C)(C(=O)N[C@@H](CCCC)C(=O)N[C@@H](C)C(=O)N[C@@H](CC(C)C)C(=O)N[C@@H](CC(=O)O)C(=O)N[C@@H](CCCNC(=N)N)C(=O)N[C@@H](C)C(N)=O)NC(=O)[C@H]([C@@H](C)CC)NC(=O)[C@H](C(C)C)NC(=O)[C@H](CC(C)C)NC1=O [SP-25] (Ac-FIDEEVL[Nle][S5]LVI[S5][Nle]ALDRA-NH2; staple 9-13) | 400 to 700 nM |
| CC[C@H](C)[C@H](NC(=O)[C@H](CCCNC(=N)N)NC(=O)[C@H](CC(=O)O)NC(=O)[C@H](CC(C)C)NC(=O)CNC(=O)[C@H](CCSC)NC(=O)[C@H](CCC(=O)O)NC(=O)[C@@H](NC(=O)[C@@H](NC(=O)[C@H](CC(C)C)NC(=O)[C@H](CO)NC(=O)[C@]1(C)CCCC=CCCC[C@](C)(NC(=O)[C@H](CC(=O)O)NC(=O)[C@@H](NC(=O)[C@H](Cc2ccccc2)NC(C)=O)[C@@H](C)CC)C(=O)N[C@@H](CCC(=O)O)C(=O)N[C@@H](C(C)C)C(=O)N[C@@H](CC(C)C)C(=O)N1)C(C)C)[C@@H](C)CC)C(=O)N[C@@H](CCCCN)C(=O)N[C@@H](CCC(=O)O)C(=O)N[C@@H](CC(C)C)C(=O)N1CCC[C@H]1C(=O)N[C@@H](CCC(=O)O)C(=O)N[C@@H](CC(C)C)C(=O)N[C@@H](Cc1c[nH]c2ccccc12)C(=O)N[C@@H](CC(C)C)C(N)=O [SP-76] (Ac-FID[S5]EVL[S5]SLVIEMGLDRIKELPELWL-NH2; staple 4-8) | > 700 nM |
| CCCC[C@H](NC(=O)[C@H](CC(C)C)NC(=O)[C@@H](NC(=O)[C@H](CCC(=O)O)NC(=O)[C@H](CCC(=O)O)NC(=O)[C@H](CC(=O)O)NC(=O)[C@@H](NC(=O)[C@H](Cc1ccccc1)NC(C)=O)[C@@H](C)CC)C(C)C)C(=O)N[C@@]1(C)CCCC=CCCC[C@@](C)(C(=O)N[C@@H](CCCC)C(=O)N[C@@H](C)C(=O)N[C@@H](CC(C)C)C(=O)N[C@@H](CC(=O)O)C(=O)N[C@@H](CCCNC(=N)N)C(N)=O)NC(=O)[C@H]([C@@H](C)CC)NC(=O)[C@H](C(C)C)NC(=O)[C@H](CC(C)C)NC1=O [SP-27] (Ac-FIDEEVL[Nle][S5]LVI[S5][Nle]ALDR-NH2; staple 9-13) | 400 to 700 nM |
| CCCC[C@H](NC(=O)[C@H](CC(C)C)NC(=O)[C@@H](NC(=O)[C@H](CCC(=O)O)NC(=O)[C@H](CCC(=O)O)NC(=O)[C@H](CC(=O)O)NC(=O)[C@@H](NC(=O)[C@H](Cc1ccccc1)NC(C)=O)[C@@H](C)CC)C(C)C)C(=O)N[C@@]1(C)CCCC=CCCC[C@@](C)(C(=O)N[C@@H](CCCC)C(=O)N[C@@H](C)C(=O)N[C@@H](CO)C(=O)N[C@@H](CC(=O)O)C(=O)N[C@@H](CCCNC(=N)N)C(=O)N[C@H](C(N)=O)[C@@H](C)CC)NC(=O)[C@H]([C@@H](C)CC)NC(=O)[C@H](C(C)C)NC(=O)[C@H](CC(C)C)NC1=O [SP-56] (Ac-FIDEEVL[Nle][S5]LVI[S5][Nle]ASDRI-NH2; staple 9-13) | 400 to 700 nM |
| CC[C@H](C)[C@H](NC(=O)[C@H](CC(N)=O)NC(=O)[C@@H](NC(=O)[C@H](CCC(N)=O)NC(=O)[C@H](CC(=O)O)NC(=O)[C@H](CC(C)C)NC(=O)[C@H](C)NC(=O)[C@H](CCCNC(=N)N)NC(=O)[C@H](CC(C)C)NC(=O)[C@H](CC(C)C)NC(=O)[C@H](CCC(=O)O)NC(=O)[C@H](CCC(=O)O)NC(=O)CNC(=O)[C@H](CCC(N)=O)NC(=O)[C@H](CC(C)C)NC(=O)[C@H](CC(C)C)NC(C)=O)C(C)C)C(=O)N[C@@H](CC(=O)O)C(=O)N[C@@H](CCC(=O)O)C(=O)N[C@@H](CCC(=O)O)C(=O)N[C@H](C(=O)N[C@@H](CC(C)C)C(=O)N[C@@H](CCSC)C(=O)N[C@@]1(C)CCCC=CCCC[C@@](C)(C(=O)N[C@@H](CCSC)C(N)=O)NC(=O)[C@H]([C@@H](C)CC)NC(=O)[C@H](C(C)C)NC(=O)[C@H](CC(C)C)NC1=O)C(C)C [SP-319] (Ac-LLQGEELLRALDQVNIDEEVLM[S5]LVI[S5]M-NH2; staple 23-27) | 200 to 400 nM |
| CC[C@H](C)[C@H](NC(=O)[C@H](Cc1ccccc1)NC(C)=O)C(=O)N[C@@H](CC(=O)O)C(=O)N[C@@H](CCC(=O)O)C(=O)N[C@]1(C)CCCCCCC=CCCC[C@@](C)(C(=O)N[C@@H](CCC(=O)O)C(=O)N[C@@H](CCSC)C(=O)NCC(=O)N[C@@H](CC(C)C)C(=O)N[C@@H](CC(=O)O)C(=O)N[C@@H](CCCNC(=N)N)C(=O)N[C@H](C(=O)N[C@@H](CCCCN)C(=O)N[C@@H](CCC(=O)O)C(=O)N[C@@H](CC(C)C)C(=O)N2CCC[C@H]2C(=O)N[C@@H](CCC(=O)O)C(=O)N[C@@H](CC(C)C)C(=O)N[C@@H](Cc2c[nH]c3ccccc23)C(=O)N[C@@H](CC(C)C)C(N)=O)[C@@H](C)CC)NC(=O)[C@H](C(C)C)NC(=O)[C@H](CC(C)C)NC(=O)[C@H](CO)NC(=O)[C@H](CCSC)NC(=O)[C@H](CC(C)C)NC(=O)[C@H](C(C)C)NC1=O [SP-82] (Ac-FIDE[R8]VLMSLV[S5]EMGLDRIKELPELWL-NH2; staple 5-12) | 200 to 400 nM |
